PMC7819943, “Rice protein-binding microarrays: a tool to detect cis-acting elements near promoter regions in rice”
The other results are listed elsewhere or left out.

What follows are sequences tested against T1, OsWOX13 (Oryza sativa, UniProt Q5QMM3 1-267) (assay: protein-binding microarray (RPBM); PBS, 2% BSA, 51.3 ng/ul salmon testes DNA, 50 uM zinc acetate, 200 nM TF, 25 C, 1 h; high values mean tight binding). Settings: protein: recombinant; tags: N-terminal polyhistidine and DsRed monomer fusion (pET32a); label: CyDye5-dUTP incorporated in the synthesized complementary strand; 3' TTTTT single-stranded linker to array surface; dsDNA, one strand shown.
T1 sequence: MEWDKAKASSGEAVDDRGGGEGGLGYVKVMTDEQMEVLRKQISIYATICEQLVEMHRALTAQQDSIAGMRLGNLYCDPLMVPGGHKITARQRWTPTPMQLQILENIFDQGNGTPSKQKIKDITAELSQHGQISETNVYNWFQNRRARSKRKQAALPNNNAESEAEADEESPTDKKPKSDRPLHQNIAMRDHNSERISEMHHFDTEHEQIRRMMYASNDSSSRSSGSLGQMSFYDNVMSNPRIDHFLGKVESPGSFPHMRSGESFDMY
Outline: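 Using Ni–NTA, transcription factors fused N-terminally to polyhistidine and DsRed were purified after expression in E. coli BL21-CodonPlus. These were incubated at 200 nM with a blocked, double-stranded custom Agilent array for 1 h at 25 °C in a buffer containing 50 µM zinc acetate, and the array was washed. The binding signal is per-feature fluorescence intensity (arbitrary units) on an Axon 4000B scanner.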

Sequence | binding signal
TAAATTAGCAGGTAATTCTAGCTTACTTATAAGCGGATTCCGGAGTCACCTAGTGCAG | 5330 fluorescence intensity (a.u.)
ATAACAACGAATTGAATGACGAGTAATCGAACGTGGCATTCGGAGTCACCTAGTGCAG | 8150 fluorescence intensity (a.u.)
GGAAGGAATGTTTGTGTTGATTGCCACGGAATTCTAGCAACGGAGTCACCTAGTGCAG | 4200 fluorescence intensity (a.u.)
CTGATGATTACCGATCACGTTCTCTGATGGATAGGTGACACGGAGTCACCTAGTGCAG | 24600 fluorescence intensity (a.u.)
AAATAATTAACCCTGTAAAATGCCATCGCTCACGGTTTACCGGAGTCACCTAGTGCAG | 7620 fluorescence intensity (a.u.)
CCTAATTAATTACTCCGTCTGTTCTTGAATATGACAACTTCGGAGTCACCTAGTGCAG | 47200 fluorescence intensity (a.u.)
TGCTGATTTCTGTTGGGCCTAAAGGTTGAAATGCTGAACCCGGAGTCACCTAGTGCAG | 7790 fluorescence intensity (a.u.)
ACGCACTCAAGTTAGGATTTGATTGAAGAGTCAATCAATCCGGAGTCACCTAGTGCAG | 36800 fluorescence intensity (a.u.)
AATTAGGAGTCCAATTATCTCATATTAACATGCGAGTTTTCGGAGTCACCTAGTGCAG | 3280 fluorescence intensity (a.u.)
AATAAGTTGTAATAATTAAAATTTAGTTAATCACGCGCGCCGGAGTCACCTAGTGCAG | 9080 fluorescence intensity (a.u.)
GATAATTTGTCCTGTCACTTAGGGCTCCCACATAGTAACACGGAGTCACCTAGTGCAG | 25200 fluorescence intensity (a.u.)
AGGACTGCTAATTGCTATACTTGGTACCACTTTCTCAATTCGGAGTCACCTAGTGCAG | 10500 fluorescence intensity (a.u.)
CGAGTTATCTATTAATTTGACATATTAATATGTTTATGGACGGAGTCACCTAGTGCAG | 14400 fluorescence intensity (a.u.)
TGAAAATTTCCCTTCTAATCTCAATCCCGTGGAGATATGTCGGAGTCACCTAGTGCAG | 3380 fluorescence intensity (a.u.)
CCCATGATGATTTTATCAATCTCAAGATATACCTGCCCAGCGGAGTCACCTAGTGCAG | 30400 fluorescence intensity (a.u.)
TTGACTGATTTCGTTTGTTTCGAGATATAAGCCAATTCAACGGAGTCACCTAGTGCAG | 15300 fluorescence intensity (a.u.)
GAAAATTTTCCAATTCACTGTTGCAATATAACTGTAATAACGGAGTCACCTAGTGCAG | 5680 fluorescence intensity (a.u.)
GTATAATTATTAATCCTATCCAACAAAAGTTCTATAAAATCGGAGTCACCTAGTGCAG | 11000 fluorescence intensity (a.u.)
TCACCTTAATTAAAACATATAAATGTTCACCCGGTACAACCGGAGTCACCTAGTGCAG | 8140 fluorescence intensity (a.u.)
TTTTGATTTGAGTAGGACCGCGTTATGAGAGCGGGGTGAGCGGAGTCACCTAGTGCAG | 25200 fluorescence intensity (a.u.)
TTGATTTCTAAAATTTAGATTTTGGTTTGACAGATAAGCACGGAGTCACCTAGTGCAG | 21800 fluorescence intensity (a.u.)

Sequence | binding signal
ATATAAATTATGTTATCAGCAGAACAATCACAGTACAAATCGGAGTCACCTAGTGCAG | 6210 fluorescence intensity (a.u.)
CTACTCTCCTCTCCGAGATAGTACTATATATTTGCACTTCCGGAGTCACCTAGTGCAG | 5420 fluorescence intensity (a.u.)
CCGCCACTAATGATGCACATTTATTCTTTACATAAATAAACGGAGTCACCTAGTGCAG | 3180 fluorescence intensity (a.u.)
AAATGTGATTTTGTAATTTCCCCTTTGAATTTTCATCAAACGGAGTCACCTAGTGCAG | 8970 fluorescence intensity (a.u.)
TATGTAAATTACTTTTAGCCTTTACTGAATTTACTTTTATCGGAGTCACCTAGTGCAG | 5980 fluorescence intensity (a.u.)
ATATGTAAATTAATTTTATAGCATTTATGAAAGTAAATCTCGGAGTCACCTAGTGCAG | 18500 fluorescence intensity (a.u.)
TCATGACTGGAGGGAGTATACTTGCGACAGTTTAGCAATACGGAGTCACCTAGTGCAG | 3860 fluorescence intensity (a.u.)
TTAATGACTATTTAGTTGACATGTAAGAAACAGGGGATTTCGGAGTCACCTAGTGCAG | 3450 fluorescence intensity (a.u.)
CGTAAAATTTGCGTTTTGTGAAAGTGTGTTCTTGCATAATCGGAGTCACCTAGTGCAG | 3610 fluorescence intensity (a.u.)
TTAGATTATTGAGTCAGATTACTATAAGCTAGATTATTATCGGAGTCACCTAGTGCAG | 12500 fluorescence intensity (a.u.)
ATGATAAGTAAAATTACTTATCCTTGGTCTGTGTGCCAAGCGGAGTCACCTAGTGCAG | 3250 fluorescence intensity (a.u.)
TAATATCATTAGCACATGATTAATTACAAAATAGATTTATCGGAGTCACCTAGTGCAG | 10000 fluorescence intensity (a.u.)
ATACCAAACAATCTGTCAATCTACCTTCCACCTAATTTCGCGGAGTCACCTAGTGCAG | 7840 fluorescence intensity (a.u.)
ATCATAATCATCAGTCATTCAGCCTAAATGTTCAGGAATGCGGAGTCACCTAGTGCAG | 18500 fluorescence intensity (a.u.)
GTCTCTGTCTCTCGCTCTGATTGAAGTGTTCTGCTGCCATCGGAGTCACCTAGTGCAG | 20400 fluorescence intensity (a.u.)
TGAACTGTTAATGTTATTAATAATTTATGAGATACAGAGTCGGAGTCACCTAGTGCAG | 4170 fluorescence intensity (a.u.)
TATGAGTTACTACAAATAATTAGCGGTTTCAATAACAAAGCGGAGTCACCTAGTGCAG | 5100 fluorescence intensity (a.u.)
GCGTAGTGATTCATGACAAATTAGTGGTCTAAAACTGAACCGGAGTCACCTAGTGCAG | 5820 fluorescence intensity (a.u.)
CATCATATCAGTATTTGATTGATCCTTTCAAGCTTCCTCGCGGAGTCACCTAGTGCAG | 32100 fluorescence intensity (a.u.)
ATTCATTGATTAATTACTCGGTCACTGCAATCCAGGAGAGCGGAGTCACCTAGTGCAG | 50300 fluorescence intensity (a.u.)
GTAACATGATGGCATTTGAGTAATTAACTAGTAAAACATACGGAGTCACCTAGTGCAG | 3540 fluorescence intensity (a.u.)
